Out of some 310,000 compounds screened, about 2,200 (0.71%) showed an effect of 50% or more. Effects have a minus sign here. The list shows a part of the results.
What follows are compounds tested against human ether-à-go-go-related gene (hERG) potassium channel (human, UniProt Q12809) (assay: primary screen, population patch clamp on CHO cells stably expressing hERG).
human ether-à-go-go-related gene (hERG) potassium channel, sequence (Q12809 whole entry, looked up): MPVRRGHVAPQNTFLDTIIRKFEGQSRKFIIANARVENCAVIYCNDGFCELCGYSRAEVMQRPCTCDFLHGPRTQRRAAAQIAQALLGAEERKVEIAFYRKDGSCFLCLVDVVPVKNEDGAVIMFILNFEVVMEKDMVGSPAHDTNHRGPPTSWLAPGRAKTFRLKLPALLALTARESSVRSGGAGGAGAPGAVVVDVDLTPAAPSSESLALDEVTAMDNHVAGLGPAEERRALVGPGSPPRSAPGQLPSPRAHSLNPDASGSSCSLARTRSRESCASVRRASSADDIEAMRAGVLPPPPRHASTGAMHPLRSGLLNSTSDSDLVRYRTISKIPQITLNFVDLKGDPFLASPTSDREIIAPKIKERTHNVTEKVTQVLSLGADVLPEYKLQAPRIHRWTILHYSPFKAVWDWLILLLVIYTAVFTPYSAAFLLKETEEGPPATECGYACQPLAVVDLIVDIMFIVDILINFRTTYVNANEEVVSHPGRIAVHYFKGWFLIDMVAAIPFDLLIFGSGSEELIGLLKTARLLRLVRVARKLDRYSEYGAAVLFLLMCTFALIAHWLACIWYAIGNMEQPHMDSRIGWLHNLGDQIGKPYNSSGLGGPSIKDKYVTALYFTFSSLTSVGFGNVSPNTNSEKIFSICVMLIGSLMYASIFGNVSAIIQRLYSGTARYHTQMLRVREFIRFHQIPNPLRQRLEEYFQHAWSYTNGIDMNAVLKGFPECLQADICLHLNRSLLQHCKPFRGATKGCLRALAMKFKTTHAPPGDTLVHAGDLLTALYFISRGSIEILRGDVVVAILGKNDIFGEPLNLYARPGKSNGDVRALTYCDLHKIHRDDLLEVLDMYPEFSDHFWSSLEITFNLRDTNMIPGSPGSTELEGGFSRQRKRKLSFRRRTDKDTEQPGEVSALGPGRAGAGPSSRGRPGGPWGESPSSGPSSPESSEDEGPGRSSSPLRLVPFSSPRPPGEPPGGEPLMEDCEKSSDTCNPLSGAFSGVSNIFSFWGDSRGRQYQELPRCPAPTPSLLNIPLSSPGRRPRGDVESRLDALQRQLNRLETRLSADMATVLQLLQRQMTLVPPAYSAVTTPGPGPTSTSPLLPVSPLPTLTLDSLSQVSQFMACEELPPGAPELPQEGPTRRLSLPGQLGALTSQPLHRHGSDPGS

Row | Compound | hERG current change (%, negative = inhibition) at 1uM [%]
1 | Cc1cc(N2CCN(C(=O)c3ccco3)CC2)n2nc(-c3cccc(Cl)c3)cc2n1 | 11.5
2 | Cc1ccc(O)c(C2=NOC(O)(C(F)(F)F)C2)c1 (stereo not shown) | 1.79
3 | O=C(O)CCCC(=O)N1CCc2cc(S(=O)(=O)NCc3ccc(F)cc3)ccc21 | -1.1
4 | O=C(CSc1nc2ccccc2o1)N1c2ccccc2Sc2ccc(Cl)cc21 | 2.38
5 | CCOC(=O)N1N=C(c2ccc(OC)cc2)CC1(O)C(F)(F)F (stereo not shown) | 18.5
6 | Cc1ccc(S(=O)(=O)/C(C#N)=C/c2c(Oc3ccc(Cl)cc3)nc3c(C)cccn3c2=O)cc1 | 12.7
7 | CC(=O)Nc1nc(C2COc3ccccc3O2)cs1 (stereo not shown) | 13
8 | O=C(c1nc2ccccn2c1CN1CCCC(OCc2ccccc2)C1)N1CCCC1 (stereo not shown) | -25.7
9 | CSc1nc2[nH]ncc2c(=O)[nH]1 | 0.469
10 | Cc1ccc(C(=O)NCc2ccc(N3CCN(C(=O)OC(C)(C)C)CC3)cc2)cc1 | 11.4
11 | CCC(=O)N(C1=C(NC)C(=O)c2ccccc2C1=O)C(C)C | 7.58
12 | Cc1ccc(C)c(NC(=O)CSc2nc(C)cc(C)c2C#N)c1 | 12.2
13 | N#CC(Cc1ccccc1OC(F)F)c1nc2ccccc2[nH]1 (stereo not shown) | -0.805
14 | CCCCc1nc2ccccc2c(NC(=O)CN(CC)CC)c1CCC.O=C(O)C(=O)O | -6.48
15 | C/C(CC(=O)Nc1cccc(C(F)(F)F)c1)=N\NC(=O)Cc1ccccc1 | 12.9
16 | CCCP(=O)(CCC)CCP(=O)(c1ccccc1)c1ccccc1 | 11.1
17 | O=C(CSc1nc2[nH]ncc2c(=O)[nH]1)NCCc1ccccc1 | 17.8
18 | Cc1cc(NC(=NC2CC2)c2ccccc2F)n(-c2ccccc2)n1 | 1.72
19 | COc1cc(CCC(=O)OCC(=O)Nc2ccc(Br)cc2F)cc(OC)c1OC | 12.9
20 | CC(=O)c1cc(F)c(N2CCN(c3ccc([N+](=O)[O-])cc3F)CC2)cc1C | -5.4
21 | Oc1ccc(N=Nc2ccccc2)o1 | 19.1
22 | N#CCCN(C(=O)COc1ccc(Cl)cc1Cl)c1ccccc1 | 7.12
23 | CC12CCC(=O)N1C(C(=O)Nc1nc(-c3ccc(F)cc3)cs1)CS2 (stereo not shown) | 9.66

Row | Compound | hERG current change (%, negative = inhibition) at 1uM [%]
24 | CCOC(=O)c1c(NC(=O)C2=C(C)NC(=S)NC2c2ccc(CC)cc2)sc(C)c1C (stereo not shown) | 0.698
25 | CCOc1ccc2ccccc2c1/C=N/NC(=O)CNC(=O)c1ccccc1O | 7.53
26 | O=C(C1COc2ccccc2O1)N1CCN(c2ccccc2O)CC1 (stereo not shown) | 7.16
27 | CSc1ccc(CN(C)C(=O)c2cccc(S(=O)(=O)NCc3ccccc3)c2)cc1 | 12.3
28 | O=C1C=C(c2cccc(Br)c2)C[C@@H](c2ccc(F)cc2)C1 | 14.8
29 | CSc1ccccc1NC(=O)CN1CCN(Cc2ccccc2)CC1 | -17.4
30 | O=C(/C=C/c1ccco1)N(Cc1ccccc1F)C1CCS(=O)(=O)C1 (stereo not shown) | 6.88
31 | Nc1nonc1-n1nnc(C(=O)N/N=C/c2ccncc2)c1-c1ccccc1 | 11.2
32 | CC1=NNC(=O)C1CCC(=O)N/N=C\c1ccc(Cl)c(Cl)c1 (stereo not shown) | 4.35
33 | CCN(CC)CCCNC(=O)c1cc2nc3c(c(C(F)(F)F)n2n1)CCc1ccccc1-3 | 2.32
34 | CC(=O)Nc1ccccc1C(=O)OCc1ccccc1F | 12
35 | Cc1cc(C)cc(C(=O)N2CCC3(CC2)NCCc2[nH]cnc23)c1 | 17.9
36 | O=C(Nc1nnc(C2CCCO2)s1)c1cccs1 (stereo not shown) | 4.73
37 | CCn1cnc2c1c(=O)n(CC(=O)Nc1cc(C)on1)c(=O)n2Cc1ccccc1 | 11.8
38 | O=C(CC(=O)NCc1cccnc1)NCc1cccnc1 | 11.8
39 | Cc1cc(C)c(S(=O)(=O)NCc2csc(C)n2)c(C)c1 | 15.7
40 | CCS(=O)(=O)N1CCN(c2ncnc3sc(C)c(C)c23)CC1 | -14.2
41 | CC1CN(Cc2ccccc2)c2nc3c(c(=O)[nH]c(=O)n3C)n2C1 (stereo not shown) | 7.43
42 | CCCn1c(-c2ccc(F)cc2)cnc1SCC(=O)O | 13.4
43 | CCCn1nc(Oc2nc(NC(C)C)nc(N(C)C)n2)ccc1=O | 19
44 | O=C(c1ccc([N+](=O)[O-])cc1)N1CCN(C(=O)C2CCCCC2)CC1 | -1.12
45 | C=CCOc1c(Br)cc(/C=C2/C(=O)ON=C2C)cc1OC | 12.7
46 | c1ccn2c(SCc3cn4ccsc4n3)nnc2c1 | 2.67

Row | Compound | hERG current change (%, negative = inhibition) at 1uM [%]
47 | CC(C)n1c(N2CCN(C(=O)NCc3ccccc3)CC2)nc2ccccc21 | -24.4
48 | CC(C)CC(NC(=O)CCl)c1ccccc1 (stereo not shown) | 2.74
49 | OCCC1CN(Cc2ccn[nH]2)CCN1Cc1ccc(F)c(F)c1 (stereo not shown) | 8.07
50 | COCCCNC(=S)N(Cc1ccccc1)Cc1nc2ccccc2c(=O)[nH]1 | 4
51 | O=C(CNC(=O)Cc1ccccc1)NCC(=O)OCC(=O)c1ccccc1Cl | -0.783
52 | O=C(COC(=O)CSc1nnc(-c2ccc(Cl)cc2)o1)Nc1cc(Cl)ccc1Cl | 3.13
53 | O=C(CP(=O)(c1ccccc1)c1ccccc1)N1CCOCC1 | 6.14
54 | O=C(O)C1C2C=CC(C2)C1C(=O)NCc1ccco1 (stereo not shown) | 7.88
55 | Cc1c(C(=O)Nc2cccc3cccnc23)oc2ccccc12 | 12.8
56 | Cc1ccc(NC(=S)Nc2ccc3cn[nH]c3c2)cc1C | -12.1
57 | C[C@@H](C(=O)Nc1ccccc1N1CCOCC1)N1C(=O)C2CC=CCC2C1=O (stereo partly shown) | 12.5
58 | CCc1ccccc1NC(=O)CSc1nnc([C@H](CCSC)NC(=O)OC(C)(C)C)o1 | 2.24
59 | Cc1ccc(C(c2nnnn2C2CCCC2)N2CCN3CCCC3C2)cc1 (stereo not shown) | -3.7
60 | COc1ccc(CC(=O)NNC(=S)Nc2ccccc2)cc1Cl | 6.48
61 | CCOC(=O)CSc1nnc(Cn2nnc3ccccc32)n1-c1ccc(F)cc1 | 5.76
62 | COc1ccc(/C=C/C(=O)OCC(=O)Nc2cccc(C(C)=O)c2)cc1 | 5.93
63 | O=C(O)c1sc2cc(Cl)ccc2c1Cl | 13.5
64 | Cc1ccc(CCN2CC(C(=O)NCCC(C)C)CC2=O)cc1 (stereo not shown) | 13.2
65 | O=C(NCCCN1CCOCC1)c1ccc(Br)s1 | -4.03
66 | Cc1ccccc1COc1ccc(/C=N/NC(=O)c2nnn(-c3nonc3N)c2CN2CCC(C)CC2)cc1 | 13.8
67 | CCOc1ccc(N(CC)C(=O)COc2cc(=O)n(CC)c3ccccc23)cc1 | -3.44
68 | COc1cc(/C=N/NC(=O)c2ccc3c(c2)OCCO3)c(Br)c(Br)c1O | 14.7
69 | CC(CCc1ccccc1)NC(=O)CSc1cccc[n+]1[O-] (stereo not shown) | 9.99

Row | Compound | hERG current change (%, negative = inhibition) at 1uM [%]
70 | O=c1c2ccccc2nc2n1C(CBr)CS2 (stereo not shown) | 12.4
71 | O=C(Nn1c(O)c(C=C2N=c3ccccc3=N2)sc1=S)c1cccc(Cl)c1 | 2.6
72 | CC1CC(C)(C)OC(C[N+]2(C)CCCCC2)O1.[I-] (stereo not shown) | 16.1
73 | Cc1cccc(OCc2nnc3n2CCCCC3)c1 | 13.9
74 | O=C(O)Cn1cc(C(=S)N2CCOCC2)c2ccccc21 | -2.36
75 | CC/C(=C\C(=O)c1cccnc1)Nc1ccc(C)c(C)c1 | 11
76 | COc1ccc(Cl)c2sc(N3CCN(C(=O)c4ccco4)CC3)nc12 | -0.11
77 | CCOC(=O)c1ccc2c(c1)N(CC(=O)N1CCCC1)C(=O)C(C)(C)O2 | 2.6
78 | COC(=O)c1ccc(NC(=O)COc2ccc(N(C)S(=O)(=O)c3ccc(C)cc3)cc2)cc1 | 3.77
79 | CC(=O)Nc1cccc(-c2nc3ccccc3c(=O)o2)c1 | 16.6
80 | CCNS(=O)(=O)c1c(C)cc(C)c(N(C)S(=O)(=O)c2ccccc2)c1C | 6.53
81 | COc1ccc(S(=O)(=O)N(CC(=O)NC2CC2)c2ccc(C)cc2)cc1OC | 14.3
82 | COc1ccc(-c2nnn(CC(=O)N(Cc3ccc(F)cc3)C(C(=O)NC3CCCC3)c3ccc(F)cc3)n2)cc1 (stereo not shown) | 13.1
83 | COc1ccc(NC(=O)CNc2cccc(C#N)c2)cc1Cl | 2.01
84 | CCCc1ccc(-c2csc(NC(=O)C3=COCCO3)n2)cc1 | 10.3
85 | CCOC(=O)C1(Cc2ccccc2Cl)CCN(C(=O)c2cnccn2)CC1 | 8.14
86 | Cc1ccc(Nc2cc(C)nc3nnnn23)cc1 | 5.08
87 | O=C(Nc1cccnc1Cl)c1cc(-c2ccccc2O)on1 | 11.5
88 | C(=C\c1ccccc1)/CSc1nc2ncccc2[nH]1 | 15.8
89 | O=C(Nc1cccc(C(=O)O)c1)/C(=C\c1ccc2c(c1)OCO2)NC(=O)c1ccc(Br)o1 | 7.49
90 | O=C(CCCOc1ccc(Cl)cc1Cl)NCC1CCCO1 (stereo not shown) | -0.378
91 | CCN(C(=O)COC(=O)c1cc(S(=O)(=O)N2CCc3ccccc32)ccc1OC)C1CCS(=O)(=O)C1 (stereo not shown) | 9.92

Reference: PMC4336329 (PLoS ONE, 2015)
